Over roughly 1,000 compounds, “relative growth recovery (pomalidomide 10 uM = 100%, DMSO = 0%)” has its median near -1.6; the highest 2% begin near 21. Some of the results follow.
System: HEK293FT dCK*-IKZF1
Test: relative growth recovery (pomalidomide 10 uM = 100%, DMSO = 0%); higher = more growth rescue (IKZF1 fusion degradation)
Conditions: compound concentration: 5 uM; AraC concentration: 0.3 uM; overnight pretreatment + 4 days AraC
Description: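 Growth recovery screen of the molecular-glue-like (Specs) library. HEK293FT cells expressing a dCK*-IKZF1 fusion (primary) or dCK* alone (counter) were pretreated overnight with compound at 5 uM, then given 0.3 uM AraC for 4 days. Hoechst nuclei were counted by imaging. Primary: normalised to pomalidomide (100%) and DMSO (0%), mean of 2 replicates. Counter: normalised to no-AraC (100%) and AraC+DMSO (0%), single replicate.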

SMILES | relative growth recovery
O=C(C1CCCCC1)N1CCOC(c2cccc(Nc3ncc(Cc4ccc(Cl)cc4)s3)n2)C1 (configuration not stated) | 10.4%
CC(C)c1ccc(OCC(=O)Nc2ccc(S(=O)(=O)Nc3ncccn3)cc2)cc1 | -4.12%
CCCCc1cnc(Nc2cccc(C3CCN(C(=O)C4(C)CCCN4C(=O)OC(C)(C)C)CC3)n2)s1 (configuration not stated) | -14.5%
O=C(O)CCOCCOCCOCCOCCNc1ccc2c(c1)C(=O)N(C1CCC(=O)NC1=O)C2=O (configuration not stated) | -7.41%
Cc1cnc(Nc2cccc(CC3CCN(C(=O)c4ccccc4)CC3)n2)s1 | -3.71%
CNCC(=O)N1CCC(c2cccc(Nc3ncc(-c4cccnc4)s3)n2)CC1 | -15%
O=S(=O)(Nc1ncccn1)c1ccc(-n2cccc2)cc1 | -7.87%
CCOCCC(=O)Nc1ccc(S(=O)(=O)Nc2nccc(C)n2)cc1 | 0.77%
Cc1cc(C)nc(NS(=O)(=O)c2ccc(NS(=O)(=O)/C=C/c3ccccc3)cc2)n1 | 4.63%
Cc1csc(Nc2cccc(C3CCCN3C(=O)CC3CC(C)(C)NC(C)(C)C3)n2)n1 (configuration not stated) | -0.835%
Cc1ccnc(NS(=O)(=O)c2ccc(NS(C)(=O)=O)cc2)n1 | -3.19%
Cc1ccc(S(=O)(=O)Nc2ccc(S(=O)(=O)Nc3nccc(C)n3)cc2)cc1 | 2.65%
Cc1cnc(Nc2cccc(C3CCN(C(=O)C4CCCC(C)C4)CC3)n2)s1 (configuration not stated) | -10.7%
Cc1cc(C)nc(NS(=O)(=O)c2ccc(NC(=O)CSc3nnnn3-c3ccccc3)cc2)n1 | -4.58%
COc1ccccc1CCC(=O)N1CCCC1c1cccc(Nc2nc(C)cs2)n1 (configuration not stated) | 7.08%
CC(C)(C)C(=O)Nc1ccc(S(=O)(=O)Nc2ncccn2)cc1 | -2.37%
O=C(C1CCCCC1)N1CCOC(c2cccc(Nc3ncc(Cc4cccc(Cl)c4)s3)n2)C1 (configuration not stated) | -0.2%
O=C(CCc1cccc(Cl)c1)N1CCOC(c2cccc(Nc3nccs3)n2)C1 (configuration not stated) | 14.7%
Cc1ccnc(NS(=O)(=O)c2ccc(NC(=O)c3ccc4c(c3)OCO4)cc2)n1 | 0.925%
CCOC(=O)CN(C(=O)CSc1nnc2c(n1)[nH]c1ccc(OC)cc12)c1ccc(F)cc1 | 2.35%
Nc1ccc(S(=O)(=O)Nc2nccc(/C=C/c3ccc(Br)s3)n2)cc1 | -3.98%
COc1cc(NS(=O)(=O)c2ccc(NCc3ccccc3O)cc2)nc(OC)n1 | -2.96%
CN(Cc1ccccc1)[C@@H]1CCC[C@@H](n2cnc3c(N)nc(N)nc32)[C@@H]1O | 1.06%
CN1CCCc2cc(C(=O)N3CCCC3c3cccc(Nc4nccs4)n3)ccc21 (configuration not stated) | 12.2%

SMILES | relative growth recovery
Cc1cc(NS(=O)(=O)c2ccc(NC(=O)C(C)(C)C)cc2)nc(C)n1 | -1.96%
CCCc1cnc(Nc2cccc(C3CCN(C(=O)C4CCCCN4CC(=O)O)CC3)n2)s1 (configuration not stated) | -13.7%
Cc1ccnc(NS(=O)(=O)c2ccc(NC(=O)COc3ccccc3)cc2)n1 | -1.05%
Cc1ccc(C)c2c1[nH]c1nc(SCC(=O)Nc3ccc(F)c(Cl)c3)nnc12 | -0.34%
COc1cc(C(=O)Nc2ccc(S(=O)(=O)Nc3ncccn3)cc2)cc(OC)c1OC | -0.2%
CC(C)Oc1ccc(C(=O)Nc2ccc(S(=O)(=O)Nc3ncccn3)cc2)cc1 | -5.52%
Cc1cc(C)nc(NS(=O)(=O)c2ccc(NC(=O)c3ccc(Cl)cc3)cc2)n1 | -3.43%
Cc1cccnc1Nc1nc(C2CCN(CC(N)=O)CC2)cs1 | -6.52%
COc1ccc(C(=O)Nc2ccc(S(=O)(=O)Nc3ncccn3)cc2)c(OC)c1 | -1.31%
COc1cc(NS(=O)(=O)c2ccc(NC(=O)Cc3ccccc3)cc2)nc(OC)n1 | -1%
O=C(C1CCCCC1)N1CCC(c2cccc(Nc3nccs3)n2)CC1 | -7.92%
Cc1cccc(C)c1OCC(=O)Nc1ccc(S(=O)(=O)Nc2ncccn2)cc1 | 1.77%
CC(=O)NC1(CC(=O)N2CCC(c3cccc(Nc4ncc(C)s4)n3)CC2)CCCCC1 | -11.7%
O=C1CCC(N2C(=O)c3ccc(Br)cc3C2=O)C(=O)N1 (configuration not stated) | -13.2%
Cc1cnc(Nc2cccc(C3CCN(CC(=O)N4CCC(C)CC4)CC3)n2)s1 | -0.65%
Cc1ccc(C(C)C)c(OCC(=O)Nc2ccc(S(=O)(=O)Nc3ncccn3)cc2)c1 | 0.11%
COc1ccccc1OCC(=O)Nc1ccc(S(=O)(=O)Nc2nc(C)cc(C)n2)cc1 | 0.575%
COc1cccc(C(=O)Nc2ccc(S(=O)(=O)Nc3ncccn3)cc2)c1 | 0.05%
Cc1ccnc(NS(=O)(=O)c2ccc(NC(=O)c3cccc(Cl)c3)cc2)n1 | -1.19%
Cc1cc(NS(=O)(=O)c2ccc(NC(=O)CCCOc3ccccc3C)cc2)nc(C)n1 | 3.3%
COc1ccc(C(=O)Nc2ccc(S(=O)(=O)Nc3ncccn3)cc2)cc1OC | 0.805%
Cc1ccnc(NS(=O)(=O)c2ccc(NC(=O)CC(C)(C)C)cc2)n1 | 1.86%
COCC(C)NC(=O)CN1CCC(c2cccc(Nc3nc(C)c(C)s3)n2)CC1 (configuration not stated) | 13.9%
